The whole screen tested about 200,000 compounds, of which about 10 (0.005%) were called active. The shares of active, inactive and inconclusive entries below differ from those in the screen. Calls come from the whole dose curve; as a rule, active = well fitted inhibition curve with a large enough effect; inconclusive = small, poorly fitted or top-dose-only effect, or effect the other way, or another doubt; inactive = no such curve, though single readings can be large or run the other way. Potencies of inconclusive entries are left out as doubtful fits.
What follows are compounds tested against Lysosomal alpha-glucosidase (Homo sapiens) (UniProt P10253) (assay: qHTS Assay for Inhibitors of Human alpha-Glucosidase as a Potential Chaperone Treatment of Pompe Disease). Conditions: purified human GAA, 4-MU-alpha-glucoside fluorescence; activity change, negative = inhibition: at 76.9 µM (top of the series) unless noted.
Procedure, shortened: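 Endpoint fluorogenic read: 20 min room-temperature reaction of 4 nM human alpha-glucosidase with 400 uM 4-methylumbelliferyl-alpha-D-pyranoside, pH 5.0, quenched with 1M NaOH/1M glycine pH 10. AC50 from Hill modeling.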
Potency is the fitted concentration of half-maximal effect; tags give direction and shape of the fitted curve.
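Throughout, for activity change, negative = inhibition: plate controls were uninhibited enzyme wells for no effect and no-enzyme background for full effect.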

**Q.** Which Potency does the source give for `CC(CS(=O)(=O)c1ccccc1[N+](=O)[O-])N1CCOCC1` (centres undefined) here?
**A.** Its Potency is inconclusive [inhibitor, single point].

**Q.** `CCCn1c(SCC(=O)NCCc2ccccc2)nnc1-c1ccccn1` was tested. Which Potency did it give?
**A.** The Potency was inconclusive [inhibitor, single point].

**Q.** How did the Potency turn out when `CCCOc1ccc(N2C(=O)CC(N(CCc3ccccc3)C(=O)c3ccccc3)C2=O)cc1` (centres undefined) was run?
**A.** The Potency was inconclusive [inhibitor, single point].

**Q.** `Cc1ccc(SC(C)C(=O)NCc2ccc(F)cc2)cc1` (centres undefined) was tested. Which Potency did it give?
**A.** The Potency was inconclusive [activator, full curve, poor fit].

**Q.** With `CCOC(=O)c1c(/N=C/c2ccccc2O)sc2c1CCC2` as the compound, how does the Potency read?
**A.** Its Potency is “inactive”.

**Q.** Which activity change, negative = inhibition does the source give for `CC(=O)N1CCCC(C(=O)c2ccc3c4c(cccc24)CC3)C1` (centres undefined) here?
**A.** The activity change, negative = inhibition was inconclusive: 19.1% [activator].

**Q.** With `Cc1cc([N+](=O)[O-])ccc1NC(=O)c1ccco1` as the compound, how does the activity change, negative = inhibition read?
**A.** The activity change, negative = inhibition was inconclusive: 15.5% [activator].

**Q.** With `CCCCOc1ccc(C2OC34CCCCC3C(C#N)(C#N)C2(C#N)C(=N)O4)cc1` (centres undefined) as the compound, how does the Potency read?
**A.** Its Potency is inconclusive [activator, single point].

**Q.** How did the Potency turn out when `CCCCn1c(Nc2ccccc2)nc2ccccc21` was run?
**A.** The Potency was inconclusive [inhibitor, single point].

**Q.** How did the Potency turn out when `O=C(c1cc2cc([N+](=O)[O-])ccc2s1)N1CCOCC1` was run?
**A.** The Potency was inconclusive [inhibitor, single point].

**Q.** `COc1ccc(OC)c(C2C(C(C)=O)=C(O)C(=O)N2c2ccc(F)cc2)c1` (centres undefined) was tested. Which Potency did it give?
**A.** Its Potency is inconclusive [inhibitor, single point].

**Q.** Which Potency does the source give for `COc1cc(CNn2cnnc2)ccc1OCC(=O)NC1CCCCC1` here?
**A.** Its Potency is inconclusive [inhibitor, single point].

**Q.** With `CCCS(=O)(=O)N1CCC(CCOc2ccccc2)(C(=O)OCC)CC1` as the compound, how does the activity change, negative = inhibition read?
**A.** Its activity change, negative = inhibition is inconclusive: 18.7% [activator].

**Q.** Which Potency does the source give for `O=c1[nH]c(-c2ccccc2)nc2sc(-c3ccccc3)cc12` here?
**A.** The Potency was inconclusive [activator, single point].

**Q.** Which Potency does the source give for `Cc1ccc(NC(=O)CN(C)c2ccc(S(=O)(=O)N3CCCC3)cn2)cc1` here?
**A.** The Potency was inconclusive [inhibitor, single point].

**Q.** With `Cc1ccnc(NC(=O)CCC2COc3ccccc3O2)c1` (centres undefined) as the compound, how does the Potency read?
**A.** The Potency was inconclusive [inhibitor, partial curve].

**Q.** Which Potency does the source give for `Cc1ccccc1CCNC(=O)C1CCN(S(=O)(=O)c2ccc(-n3cnnn3)cc2)CC1` here?
**A.** Its Potency is inconclusive [inhibitor, single point].

**Q.** How did the Potency turn out when `N=c1sccn1CC(=O)N1N=C(c2ccc(Cl)cc2)CC1c1ccco1` (centres undefined) was run?
**A.** The Potency was inconclusive [inhibitor, single point].

**Q.** `N#C/C(=C\Nc1ccc2cn[nH]c2c1)c1nc(-c2ccccc2)cs1` was tested. Which Potency did it give?
**A.** Its Potency is “inactive”.

**Q.** `O=C(CC(=O)N/N=C/c1c(F)cccc1Cl)NCc1ccccc1` was tested. Which Potency did it give?
**A.** The Potency was “inactive”.

**Q.** With `Cc1nc(SC(C(=O)c2ccccc2)c2ccccc2)nc2ccccc12` (centres undefined) as the compound, how does the Potency read?
**A.** The Potency was inconclusive [inhibitor, single point].

**Q.** `CCn1c(SCC(=O)N2CCOCC2)nc(O)cc1=O` was tested. Which Potency did it give?
**A.** The Potency was inconclusive [inhibitor, single point].

**Q.** Which Potency does the source give for `O=C(Nc1ccc(F)cc1F)NC1CCN(S(=O)(=O)c2ccc(F)cc2)CC1` here?
**A.** Its Potency is inconclusive [inhibitor, single point].

**Q.** How did the activity change, negative = inhibition turn out when `S=C(Nc1ccccc1)Nc1nc2ccccc2n1CCOc1ccc(Cl)cc1` was run?
**A.** The activity change, negative = inhibition was inconclusive: -16.4% [inhibitor].

**Q.** How did the Potency turn out when `CNC(=O)c1csc(-c2ccc(Cl)cc2)n1` was run?
**A.** The Potency was inconclusive [activator, full curve, poor fit].

**Q.** `COc1ccccc1CCc1nnc(CCC(=O)NCCOc2cccnc2)o1` was tested. Which Potency did it give?
**A.** Its Potency is inconclusive [inhibitor, single point].

**Q.** Which Potency does the source give for `CCSc1nc(C)cc(Oc2ccc(=O)n(C)n2)n1` here?
**A.** Its Potency is inconclusive [inhibitor, single point].

**Q.** Which Potency does the source give for `O=C(N/N=C/c1ccc([N+](=O)[O-])cc1)C(=O)N1CCCC1` here?
**A.** Its Potency is inconclusive [inhibitor, single point].

**Q.** For `CC(C)(C)C1CCc2c(sc(NC(=O)C3CC=CCC3C(=O)O)c2C#N)C1` (centres undefined), which Potency is on record?
**A.** The Potency was inconclusive [inhibitor, full curve, poor fit].

**Q.** For `CCCCC1CCC(C(=O)OCC(=O)Nc2ccc(S(N)(=O)=O)cc2)CC1` (centres undefined), which Potency is on record?
**A.** The Potency was inconclusive [inhibitor, partial curve, poor fit].

**Q.** `Clc1ccc(Cn2cccn2)cn1` was tested. Which Potency did it give?
**A.** Its Potency is inconclusive [inhibitor, partial curve, poor fit].

**Q.** `Nc1cccc(S(=O)(=O)Nc2ccccc2)c1` was tested. Which activity change, negative = inhibition did it give?
**A.** Its activity change, negative = inhibition is inconclusive: 16% [activator].

**Q.** For `N#Cc1ccc(C(=O)Nc2ccn(-c3ccccc3)n2)cc1`, which activity change, negative = inhibition is on record?
**A.** Its activity change, negative = inhibition is inconclusive: -16.2% [inhibitor].

**Q.** For `O=C(c1cccc(C(F)(F)F)c1)N1CCC(O)(CS(=O)(=O)Cc2ccccc2)CC1`, which Potency is on record?
**A.** Its Potency is inconclusive [activator, full curve, poor fit].

**Q.** With `CCC1=NN(C(=O)c2ccccc2Br)C(O)(c2ccc(Br)cc2)C1` (centres undefined) as the compound, how does the Potency read?
**A.** The Potency was inconclusive [inhibitor, single point].

**Q.** Which Potency does the source give for `O=C(c1cc2c(s1)-c1ccccc1OC2)N1CCCC1` here?
**A.** The Potency was inconclusive [activator, partial curve].

**Q.** `Cc1ccc(S(=O)(=O)N2CCOCC2)cc1NC(=O)CSc1n[nH]c(N)n1` was tested. Which Potency did it give?
**A.** Its Potency is inconclusive [inhibitor, full curve, poor fit].

**Q.** With `CN(C)C(C(=O)Nc1cc(Cl)cc(Cl)c1)c1ccccc1` (centres undefined) as the compound, how does the Potency read?
**A.** The Potency was inconclusive [inhibitor, single point].

**Q.** Which Potency does the source give for `Cc1ccc(OCCCSc2n[nH]c(N)n2)cc1` here?
**A.** Its Potency is inconclusive [inhibitor, single point].

**Q.** How did the activity change, negative = inhibition turn out when `CCOc1ccc(-c2cc(C(=O)N3CCN(C)CC3)c3ccccc3n2)cc1` was run?
**A.** The activity change, negative = inhibition was inconclusive: 17.6% [activator].

**Q.** With `Cc1ccc(-n2nc3c(c2NC(=O)CCC2CCCCC2)CS(=O)C3)cc1` (centres undefined) as the compound, how does the Potency read?
**A.** The Potency was inconclusive [inhibitor, full curve, poor fit].

**Q.** With `COCCn1cc(C(=O)N2CCCC(C)C2)c2c3ccccc3n(C)c2c1=O` (centres undefined) as the compound, how does the Potency read?
**A.** Its Potency is inconclusive [activator, partial curve].

**Q.** Which activity change, negative = inhibition does the source give for `COc1ccc(OC)c(N(CC(=O)NC2CC2)S(=O)(=O)c2ccc(C)cc2)c1` here?
**A.** The activity change, negative = inhibition was inconclusive: 19.1% [activator].

**Q.** How did the Potency turn out when `CCOc1ccc(Cc2nnc(SCC(=O)c3ccc(OC)cc3)o2)cc1` was run?
**A.** Its Potency is “inactive”.

**Q.** `CCN(C(=O)COC(=O)/C=C/c1cnc2ccccc2n1)c1ccccc1` was tested. Which Potency did it give?
**A.** Its Potency is inconclusive [inhibitor, partial curve, poor fit].

**Q.** With `COc1cc(/C=N\n2nnnc2N)ccc1OCc1ccc(F)cc1` as the compound, how does the Potency read?
**A.** The Potency was inconclusive [activator, partial curve].

**Q.** `O=C(CSc1ncc(C(F)(F)F)cc1Cl)N1CCN(S(=O)(=O)c2ccc(Cl)cc2)CC1` was tested. Which Potency did it give?
**A.** The Potency was inconclusive [inhibitor, partial curve, poor fit].

**Q.** For `N=c1nc(SCCC(=O)O)ss1`, which Potency is on record?
**A.** Its Potency is inconclusive [inhibitor, full curve, poor fit].

**Q.** For `Cc1cccc(-c2nnn3c2nc(NCCc2ccc(S(N)(=O)=O)cc2)c2ccccc23)c1`, which Potency is on record?
**A.** Its Potency is inconclusive [activator, partial curve].

**Q.** For `COc1ccc(CCN2C(=O)CC(C(N)=O)SC2=Nc2ccc(F)cc2)cc1OC` (centres undefined), which activity change, negative = inhibition is on record?
**A.** The activity change, negative = inhibition was inconclusive: 15.2% [activator].

**Q.** `Cc1cc(Cl)ccc1OCC(=O)N1CCCN(C(=O)COc2ccc(Cl)cc2C)CC1` was tested. Which Potency did it give?
**A.** Its Potency is inconclusive [inhibitor, single point].

**Q.** `COCCNC(=O)CSc1nc2cc3c(cc2c(=O)n1CCCC(=O)NCc1ccc(OC)cc1)OCO3` was tested. Which Potency did it give?
**A.** The Potency was inconclusive [inhibitor, partial curve, poor fit].

**Q.** With `CCc1nnc(NC(=O)C2CCC2)s1` as the compound, how does the Potency read?
**A.** The Potency was inconclusive [inhibitor, single point].

**Q.** `O=C(NCc1ccccn1)c1coc(=O)c(Br)c1` was tested. Which Potency did it give?
**A.** Its Potency is inconclusive [activator, partial curve].

**Q.** Which Potency does the source give for `CCOc1cc(/C=C2/NC(=O)NC2=O)cc(Br)c1OCc1ccc(C(=O)O)cc1` here?
**A.** Its Potency is inconclusive [inhibitor, single point].

**Q.** With `O=C(CSc1nc2nc(-c3cccs3)cc(C(F)(F)F)c2c(=O)[nH]1)Nc1ccc(F)c(F)c1` as the compound, how does the activity change, negative = inhibition read?
**A.** The activity change, negative = inhibition was inconclusive: 21.6% [activator].

**Q.** For `CCCCOC(=O)c1ccc(NC(=O)C(=O)NCC2CCCO2)cc1` (centres undefined), which activity change, negative = inhibition is on record?
**A.** The activity change, negative = inhibition was inconclusive: 12.8% [activator].

**Q.** How did the Potency turn out when `CCN(CC)c1ccc(S(=O)(=O)N2CCOCC2)cc1NC(=O)CSc1cccc[n+]1[O-]` was run?
**A.** The Potency was inconclusive [inhibitor, single point].

**Q.** With `COC(=O)c1cc(OC)c(OC)cc1NC(=O)Nc1ccc(OC)cc1OC` as the compound, how does the Potency read?
**A.** The Potency was inconclusive [activator, single point].

**Q.** For `COC(=O)c1ccc(NC(=O)c2ccccc2N(C)S(=O)(=O)c2ccccc2)cc1`, which Potency is on record?
**A.** Its Potency is inconclusive [inhibitor, single point].

**Q.** How did the activity change, negative = inhibition turn out when `CC(=O)NS(=O)(=O)c1ccc(NC(=O)/C=C/c2ccc(C)o2)cc1` was run?
**A.** Its activity change, negative = inhibition is inconclusive: 2.3% [activator].

**Q.** With `CCCCNC(=O)OC1CCS(=O)(=O)C1` (centres undefined) as the compound, how does the Potency read?
**A.** Its Potency is inconclusive [inhibitor, single point].

**Q.** For `COc1cccc(C(=O)Nc2cc(-c3cn4cccnc4n3)ccc2C)c1`, which Potency is on record?
**A.** The Potency was inconclusive [activator, partial curve].

**Q.** How did the Potency turn out when `N#Cc1c(N)n(CCCN2CCOCC2)c2nc3ccccc3nc12` was run?
**A.** The Potency was inconclusive [activator, partial curve].
